Experimental data: the supplement of paper PMC12217912
Some of the results follow. Sequences were assembled here from the parent chain. Inactive controls read about 0.05.

B1: TEV protease; numbered along this chain (parent)
chain: MGESLFKGPRDYNPISSSICHLTNESDGHTTSLYGIGFGPFIITNKHLFRRNNGTLVVQSLHGVFKVKDTTTLQQHLVDGRDMIIIRMPKDFPPFPQKLKFREPQREERICLVTTNFQTKSMSSMVSDTSCTFPSGDGIFWKHWIQTKDGQCGSPLVSTRDGFIVGIHSASNFTNTNNYFTSVPKNFMELLTNQEAQQWVSGWRLNADSVLWGGHKVFMVKPEEPFQPVKEATQL

Variants of: B1
Test: raw area under fraction-flipped curve 0-4 h after induction (AUC4h, not background-subtracted), DNA-recorder readout of cleavage of the substrate (dimensionless); higher = more cleavage of the substrate by the protease variant
Conditions: temperature: 34 °C; time window: 0-4 h after rhamnose induction
Protocol: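 In vivo DNA recorder in E. coli TOP10(DE3) ΔrhaA at 34 °C. Each TEVp single-site mutant (parent TEVp 0) is paired with a single-site variant of the 7-mer TEVs (canonical ENLYFQ|S). The substrate sits between flexible linkers in a Bxb1-sfGFP-TEVs-SsrA fusion, so cleavage stabilises Bxb1 and speeds flipping of a recombination array, read by NGS. The value is the raw area under the fraction-flipped curve over 0-4 h after rhamnose induction (AUC4h), with ≥20 reads per time point. It is not background-subtracted; inactive controls average about 0.047.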
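Further: Bxb1 expression induced with 0.2% (w/v) L-rhamnose at OD600 near 0.5, cultures sampled hourly, flipped fraction per protease–substrate barcode pair counted by paired-end Illumina sequencing.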

Variant | area with substrate ENLYEQS | area with substrate ENLYMQS | area with substrate ENLYWQS | area with substrate ENLYHQS | area with substrate ENLYIQS | area with substrate ENLYSQS | area with substrate ENLYYQS | area with substrate ENLYNQS | area with substrate ENLYKQS | area with substrate ENLYLQS
MGESLFKGPRDYNPISSSICHLTNESDGHTTSLYGIGFGPFIITNKHLFRRNNGTLVVQSLHGVFKVKDTTTLQQHLVDGRDMIIIRMPKDFPPFPQKLKFREPQREERICLVTTNFQTKSMSSMVSDTSCTFPSGDGIFWKHWIQTKDGQCGSPLVSTRDGKIVGIHSASNFTNTNNYFTSVPKNFMELLTNQEAQQWVSGWRLNADSVLWGGHKVFMVKPEEPFQPVKEATQL [F163K] | 0.0632 | 0.0949 | 0.0756 |  |  |  |  |  |  | 
MGESLFKGPRDYNPISSSICHLTNESDGHTTSLYGIGFGPFIITNKHLFRRNNGTLVVQSLHGVFKVKDTTTLQQHLVDGRDMIIIRMPKDFPPFPQKLKFREPQREERICLVTTNFQTKSMSSMVSDTSCTFPSGDGIFWKHWIQTKDGQCGSPLVSTRDGPIVGIHSASNFTNTNNYFTSVPKNFMELLTNQEAQQWVSGWRLNADSVLWGGHKVFMVKPEEPFQPVKEATQL [F163P] | 0.0601 | 0.0583 | 0.0318 | 0.0688 | 0.0562 | 0.0544 | 0.0552 |  |  | 
MGESLFKGPRDYNPISSSICHLTNESDGHTTSLYGIGFGPFIITNKHLFRRNNGTLVVQSLHGVFKVKDTTTLQQHLVDGRDMIIIRMPKDFPPFPQKLKFREPQREERICLVTTNFQTKSMSSMVSDTSCTFPSGDGIFWKHWIQTKDGQCGSPLVSTRDGFIMGIHSASNFTNTNNYFTSVPKNFMELLTNQEAQQWVSGWRLNADSVLWGGHKVFMVKPEEPFQPVKEATQL [V165M] | 0.0634 |  |  |  |  |  |  | 0.0353 |  | 
MGESLFKGPRDYNPISSSICHLTNESDGHTTSLYGIGFGPFIITNKHLFRRNNGTLVVQSLHGVFKVKDTTTLQQHLVDGRDMIIIRMPKDFPPFPQKLKFREPQREERICLVTTNFQTKSMSSMVSDTSCTFPSGDGIFWKHWIQTKDGQCGSPLVSTRDGFIVGIHSASQFTNTNNYFTSVPKNFMELLTNQEAQQWVSGWRLNADSVLWGGHKVFMVKPEEPFQPVKEATQL [N172Q] | 0.056 |  |  | 0.0979 |  |  |  | 0.0625 | 0.0536 | 0.0541
MGESLFKGPRDYNPISSSICHLTNESDGHTTSLYGIGFGPFIITNKHLFRRNNGTLVVQSLHGVFKVKDTTTLQQHLVDGRDMIIIRMPKDFPPFPQKLKFREPQREERICLVTTNFQTKSMSSMVSDTSCTFPSGDGIFWKHWIQTKDGQCGSPLVSTRDGFIVGIHSASNFCNTNNYFTSVPKNFMELLTNQEAQQWVSGWRLNADSVLWGGHKVFMVKPEEPFQPVKEATQL [T174C] | 0.0666 |  |  |  |  | 0.0505 | 0.0626 | 0.0508 |  | 
MGESLFKGPRDYNPISSSICHLTNESDGHTTSLYGIGFGPFIITNKHLFRRNNGTLVVQSLHGVFKVKDTTTLQQHLVDGRDMIIIRMPKDFPPFPQKLKFREPQREERICLVTTNFQTKSMSSMVSDTSCTFPSGDGIFWKHWIQTKDGQCGSPLVSTRDGFIVGIHSASNFFNTNNYFTSVPKNFMELLTNQEAQQWVSGWRLNADSVLWGGHKVFMVKPEEPFQPVKEATQL [T174F] | 0.0591 |  | 0.0734 | 0.0736 | 0.122 |  | 0.0605 |  |  | 
MGESLFKGPRDYNPISSSICHLTNESDGHTTSLYGIGFGPFIITNKHLFRRNNGTLVVQSLHGVFKVKDTTTLQQHLVDGRDMIIIRMPKDFPPFPQKLKFREPQREERICLVTTNFQTKSMSSMVSDTSCTFPSGDGIFWKHWIQTKDGQCGSPLVSTRDGFIVGIHSASNFGNTNNYFTSVPKNFMELLTNQEAQQWVSGWRLNADSVLWGGHKVFMVKPEEPFQPVKEATQL [T174G] | 0.0689 | 0.0761 |  | 0.078 | 0.0895 |  | 0.0573 | 0.0626 | 0.0797 | 
MGESLFKGPRDYNPISSSICHLTNESDGHTTSLYGIGFGPFIITNKHLFRRNNGTLVVQSLHGVFKVKDTTTLQQHLVDGRDMIIIRMPKDFPPFPQKLKFREPQREERICLVTTNFQTKSMSSMVSDTSCTFPSGDGIFWKHWIQTKDGQCGSPLVSTRDGFIVGIHSASNFTNTNMYFTSVPKNFMELLTNQEAQQWVSGWRLNADSVLWGGHKVFMVKPEEPFQPVKEATQL [N178M] | 0.0713 | 0.125 |  | 0.0984 | 0.213 |  |  |  |  | 
MGESLFKGPRDYNPISSSICHLTNESDGHTTSLYGIGFGPFIITNKHLFRRNNGTLVVQSLHGVFKVKDTTTLQQHLVDGRDMIIIRMPKDFPPFPQKLKFREPQREERICLVTTNFQTKSMSSMVSDTSCTFPSGDGIFWKHWIQTKDGQCGSPLVSTRDGFIVGIHSASNFTNTNQYFTSVPKNFMELLTNQEAQQWVSGWRLNADSVLWGGHKVFMVKPEEPFQPVKEATQL [N178Q] | 0.0704 |  | 0.0776 |  | 0.101 |  |  |  | 0.0517 | 
MGESLFKGPRDYNPISSSICHLTNESDGHTTSLYGIGFGPFIITNKHLFRRNNGTLVVQSLHGVFKVKDTTTLQQHLVDGRDMIIIRMPKDFPPFPQKLKFREPQREERICLVTTNFQTKSMSSMVSDTSCTFPSGDGIFWKHWIQTKDGQCGSPLVSTRDGFIVGIHSASNFTNTNNYFTCVPKNFMELLTNQEAQQWVSGWRLNADSVLWGGHKVFMVKPEEPFQPVKEATQL [S182C] | 0.0716 |  |  | 0.0707 | 0.123 | 0.113 |  |  | 0.0664 | 
MGESLFKGPRDYNPISSSICHLTNESDGHTTSLYGIGFGPFIITNKHLFRRNNGTLVVQSLHGVFKVKDTTTLQQHLVDGRDMIIIRMPKDFPPFPQKLKFREPQREERICLVTTNFQTKSMSSMVSDTSCTFPSGDGIFWKHWIQTKDGQCGSPLVSTRDGFIVGIHSASNFTNTNNYFTEVPKNFMELLTNQEAQQWVSGWRLNADSVLWGGHKVFMVKPEEPFQPVKEATQL [S182E] | 0.057 | 0.055 | 0.0495 | 0.0677 | 0.0739 |  | 0.0904 | 0.062 | 0.063 | 0.0683

Same assay, conditions: temperature: 34 °C; time window: 0-4 h after rhamnose induction

Variant | area with substrate ENLYVQS | area with substrate ENLYPQS | area with substrate ENLYGQS | area with substrate ENLYQQS | area with substrate ENLYTQS | area with substrate ENLYRQS
MGESLFKGPRDYNPISSSICHLTNESDGHTTSLYGIGFGPFIITNKHLFRRNNGTLVVQSLHGVFKVKDTTTLQQHLVDGRDMIIIRMPKDFPPFPQKLKFREPQREERICLVTTNFQTKSMSSMVSDTSCTFPSGDGIFWKHWIQTKDGQCGSPLVSTRDGFIVGIHSASQFTNTNNYFTSVPKNFMELLTNQEAQQWVSGWRLNADSVLWGGHKVFMVKPEEPFQPVKEATQL [N172Q] | 0.0687 |  |  |  |  | 
MGESLFKGPRDYNPISSSICHLTNESDGHTTSLYGIGFGPFIITNKHLFRRNNGTLVVQSLHGVFKVKDTTTLQQHLVDGRDMIIIRMPKDFPPFPQKLKFREPQREERICLVTTNFQTKSMSSMVSDTSCTFPSGDGIFWKHWIQTKDGQCGSPLVSTRDGFIVGIHSASNFCNTNNYFTSVPKNFMELLTNQEAQQWVSGWRLNADSVLWGGHKVFMVKPEEPFQPVKEATQL [T174C] |  | 0.0677 |  |  |  | 
MGESLFKGPRDYNPISSSICHLTNESDGHTTSLYGIGFGPFIITNKHLFRRNNGTLVVQSLHGVFKVKDTTTLQQHLVDGRDMIIIRMPKDFPPFPQKLKFREPQREERICLVTTNFQTKSMSSMVSDTSCTFPSGDGIFWKHWIQTKDGQCGSPLVSTRDGFIVGIHSASNFFNTNNYFTSVPKNFMELLTNQEAQQWVSGWRLNADSVLWGGHKVFMVKPEEPFQPVKEATQL [T174F] |  | 0.0547 | 0.059 | 0.0609 |  | 
MGESLFKGPRDYNPISSSICHLTNESDGHTTSLYGIGFGPFIITNKHLFRRNNGTLVVQSLHGVFKVKDTTTLQQHLVDGRDMIIIRMPKDFPPFPQKLKFREPQREERICLVTTNFQTKSMSSMVSDTSCTFPSGDGIFWKHWIQTKDGQCGSPLVSTRDGFIVGIHSASNFGNTNNYFTSVPKNFMELLTNQEAQQWVSGWRLNADSVLWGGHKVFMVKPEEPFQPVKEATQL [T174G] | 0.089 | 0.0749 | 0.0427 | 0.0566 |  | 
MGESLFKGPRDYNPISSSICHLTNESDGHTTSLYGIGFGPFIITNKHLFRRNNGTLVVQSLHGVFKVKDTTTLQQHLVDGRDMIIIRMPKDFPPFPQKLKFREPQREERICLVTTNFQTKSMSSMVSDTSCTFPSGDGIFWKHWIQTKDGQCGSPLVSTRDGFIVGIHSASNFTNTNMYFTSVPKNFMELLTNQEAQQWVSGWRLNADSVLWGGHKVFMVKPEEPFQPVKEATQL [N178M] |  | 0.0846 | 0.0637 | 0.0678 | 0.136 | 
MGESLFKGPRDYNPISSSICHLTNESDGHTTSLYGIGFGPFIITNKHLFRRNNGTLVVQSLHGVFKVKDTTTLQQHLVDGRDMIIIRMPKDFPPFPQKLKFREPQREERICLVTTNFQTKSMSSMVSDTSCTFPSGDGIFWKHWIQTKDGQCGSPLVSTRDGFIVGIHSASNFTNTNNYFTCVPKNFMELLTNQEAQQWVSGWRLNADSVLWGGHKVFMVKPEEPFQPVKEATQL [S182C] |  |  |  |  |  | 0.0572
MGESLFKGPRDYNPISSSICHLTNESDGHTTSLYGIGFGPFIITNKHLFRRNNGTLVVQSLHGVFKVKDTTTLQQHLVDGRDMIIIRMPKDFPPFPQKLKFREPQREERICLVTTNFQTKSMSSMVSDTSCTFPSGDGIFWKHWIQTKDGQCGSPLVSTRDGFIVGIHSASNFTNTNNYFTEVPKNFMELLTNQEAQQWVSGWRLNADSVLWGGHKVFMVKPEEPFQPVKEATQL [S182E] | 0.0867 |  | 0.0505 |  |  | 
